Data as given in US20240309004A1, “SELECTIVE CYCLIN-DEPENDENT KINASE INHIBITORS AND METHODS OF THERAPEUTIC USE THEREOF” (ViroKyne Therapeutics, LLC, priority 2021, published 2024).
Several values for one entry are separate records, joined by “and”; a condition that tells them apart may be missing. Identical values can stand only once. Like-named read-outs stand apart in the source and are kept apart here.

Tests used:
[1] = system: C-33 A cells; experiment: Cytotoxicity concurrent with HPV11 primary assay; assay type: cell-based
From the text: (§1) An HPV11 replicon assay was developed and expresses the essential E1 and E2 proteins from the native promoter. The E2 origin binding protein interacts with the virus origin of replication and recruits the E1 replicative helicase which unwinds the DNA and helps to recruit the cellular DNA replication machinery (including DNA polymerases, type I and type II topoisomerases, DNA ligase, single-stranded DNA binding proteins, proliferating cell nuclear antigen). The replication complex then drives the amplification of the replicon which can be assessed by the expression of a destabilized NanoLuc reporter gene carried on the replicon. In this assay, the replicon (pMP619) is transfected into C-33 A cells grown as monolayers in 384-well plates. At 48 h post transfection, the enzymatic activity of the destabilized NanoLuc reporter is assessed with NanoGlo reagent. […] . Beadle et al., 2016.

[2] = system: Epstein-Barr virus Akata strain; experiment: Epstein-Barr primary assay, Akata strain, Akata cells; assay type: cell-based
[3] = Cytotoxicity concurrent with Guinea pig CMV secondary assay; assay type: cell-based; conditions: GP lung cells
[4] = biological target: CDK7/cyclin H (Homo sapiens (Human), UniProt P50613); experiment: Kinase activity assay, CDK7/cyclin H; assay type: biochemical; conditions: 10 μM ATP, 3-fold serial dilution starting at 10 μM, read-out: Compound IC50 CDK7/cyclin H
Sequence of UniProt P50613 (P50613 whole entry): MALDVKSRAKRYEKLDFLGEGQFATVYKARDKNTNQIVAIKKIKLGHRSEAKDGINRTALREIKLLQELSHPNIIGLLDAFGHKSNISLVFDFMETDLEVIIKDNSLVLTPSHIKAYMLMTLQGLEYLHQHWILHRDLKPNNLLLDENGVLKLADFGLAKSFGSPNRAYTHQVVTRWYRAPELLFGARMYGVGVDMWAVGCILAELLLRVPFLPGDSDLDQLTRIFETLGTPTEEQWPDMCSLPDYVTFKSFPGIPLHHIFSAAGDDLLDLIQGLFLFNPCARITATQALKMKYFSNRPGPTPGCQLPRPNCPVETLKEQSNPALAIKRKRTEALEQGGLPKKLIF
Sequence of UniProt P50613 (P51946 whole entry partner): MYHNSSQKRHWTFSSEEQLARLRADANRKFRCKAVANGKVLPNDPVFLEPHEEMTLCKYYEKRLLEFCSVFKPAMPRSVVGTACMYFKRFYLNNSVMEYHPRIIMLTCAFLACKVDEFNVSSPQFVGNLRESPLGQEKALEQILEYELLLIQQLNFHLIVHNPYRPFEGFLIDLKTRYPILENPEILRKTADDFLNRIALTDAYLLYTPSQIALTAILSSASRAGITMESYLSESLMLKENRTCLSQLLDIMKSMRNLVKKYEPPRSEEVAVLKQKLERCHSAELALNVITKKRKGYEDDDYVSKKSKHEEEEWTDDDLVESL

[5] = Cytotoxicity concurrent with HHV-8 primary assay; assay type: cell-based; conditions: human
[6] = Cytotoxicity concurrent with EBV primary assay; conditions: human
[7] = Cytotoxicity concurrent with HHV-6B primary assay; assay type: cell-based; conditions: human
[8] = Cytotoxicity concurrent with HCMV secondary assay; assay type: cell-based; conditions: human, HFF cells
Method: (§2) Monolayers of HFF cells were prepared in 96-well plates and incubated at 37° C. for 1 d to allow the cells to reach confluency. Media was then aspirated from the wells and cells infected at a high MOI. At 1 h following infection, the inocula were removed and the monolayers rinsed with fresh media. […] Drug dilutions were added to the wells and the plates were incubated for various times, depending on the virus used and represents a single replication cycle for the virus. A duplicate set of dilutions were also performed but remained uninfected to serve as a cytotoxicity control and received equal compound exposure. Supernatants from each of the infected wells were subsequently titered using CTG in a TCID50 assay to quantify the progeny virus. For HCMV only, viral yield in the supernatants from the infected cells were titered using qPCR with HCMV primers [NT], and probe [NT].

[9] = Cytotoxicity concurrent with HCMV AD169 primary assay; assay type: cell-based, human; conditions: human, CC50
[10] = in vitro; assay type: cell-based; conditions: guinea pig
[11] = system: Human herpes virus 6B strain Z29; experiment: Human herpes virus 6B primary assay, strain Z29, MOLT-3 cells; assay type: cell-based, Human Herpesvirus 6B; conditions: Human betaherpesvirus 6B
[12] = system: HCMV strain AD169; experiment: HCMV secondary assay (yield reduction), strain AD169, HFF cells; assay type: cell-based, Human Cytomegalovirus; conditions: Human betaherpesvirus 5, virus strain AD169, HFF cells
Method: as §2

[13] = biological target: CDK9/cyclin T1 (Homo sapiens (Human), UniProt P50750); experiment: Kinase activity assay, CDK9/cyclin T1; assay type: biochemical; conditions: Table 3.1.1; 10 μM ATP; 10-dose duplicate, 3-fold serial dilution starting at 10 μM; read-out: Compound IC50 CDK9/cyclin T1
Sequence of UniProt P50750 (P50750 whole entry): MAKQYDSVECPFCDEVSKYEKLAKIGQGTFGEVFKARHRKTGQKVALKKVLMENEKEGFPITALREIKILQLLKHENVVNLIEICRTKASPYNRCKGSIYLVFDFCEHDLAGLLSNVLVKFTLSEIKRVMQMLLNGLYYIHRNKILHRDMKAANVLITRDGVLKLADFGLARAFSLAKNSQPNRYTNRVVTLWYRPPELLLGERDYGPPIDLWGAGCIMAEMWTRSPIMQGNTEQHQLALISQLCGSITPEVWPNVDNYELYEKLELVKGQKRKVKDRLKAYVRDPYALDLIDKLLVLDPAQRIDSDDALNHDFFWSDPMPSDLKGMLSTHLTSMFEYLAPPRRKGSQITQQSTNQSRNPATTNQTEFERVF
Sequence of UniProt P50750 (O60563 whole entry partner): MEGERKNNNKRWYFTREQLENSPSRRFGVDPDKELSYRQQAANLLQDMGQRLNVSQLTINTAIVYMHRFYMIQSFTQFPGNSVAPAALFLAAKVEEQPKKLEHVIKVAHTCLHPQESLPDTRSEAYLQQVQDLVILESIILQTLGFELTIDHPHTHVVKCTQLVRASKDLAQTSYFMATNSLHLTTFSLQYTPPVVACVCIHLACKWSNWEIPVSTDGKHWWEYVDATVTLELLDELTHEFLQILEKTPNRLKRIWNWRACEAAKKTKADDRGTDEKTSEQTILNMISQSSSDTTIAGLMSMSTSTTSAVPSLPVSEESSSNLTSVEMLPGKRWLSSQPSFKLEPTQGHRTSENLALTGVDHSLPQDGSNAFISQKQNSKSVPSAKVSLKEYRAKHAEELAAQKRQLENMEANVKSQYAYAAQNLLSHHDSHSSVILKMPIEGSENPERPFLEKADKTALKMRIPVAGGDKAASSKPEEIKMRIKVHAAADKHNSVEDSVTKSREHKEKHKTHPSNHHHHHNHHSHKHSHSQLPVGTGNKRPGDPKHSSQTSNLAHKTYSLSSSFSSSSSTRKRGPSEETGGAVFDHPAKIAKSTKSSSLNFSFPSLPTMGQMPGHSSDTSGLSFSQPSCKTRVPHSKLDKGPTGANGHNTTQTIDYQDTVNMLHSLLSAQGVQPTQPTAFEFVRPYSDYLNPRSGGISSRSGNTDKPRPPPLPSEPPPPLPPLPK

[14] = Cytotoxicity concurrent with HPV11 primary assay; assay type: cell-based; conditions: human, C-33 A cells
From the text: as §1

[15] = Cytotoxicity concurrent with Adenovirus primary assay; assay type: cell-based, human; conditions: human
[16] = Cytotoxicity concurrent with HSV1 E-377 primary assay; assay type: cell-based, human; conditions: human
Method: (§3) Assays were performed in monolayers as described. […] Toxicity was measured using CTG as above. […] Toxicity was measured using CTG as above.

[17] = in vitro; assay type: cell-based; conditions: human
Method: as §3

[18] = Cytotoxicity concurrent with HSV2 primary assay; assay type: cell-based, human; conditions: human
Method: as §3

[19] = system: Adenovirus Adenoid75 strain; experiment: Adenovirus primary assay, Adenoid75 strain, HFF cells; assay type: cell-based
[20] = system: HSV1 strain E-377; experiment: HSV1 primary assay, strain E-377, HFF cells; assay type: cell-based, Herpes Simplex Virus 1
Method: as §3
(§4) Monolayers of HFF cells were prepared in six-well plates and incubated at 37° C. for 2 d to allow the cells to reach confluency. Media was then aspirated from the wells and 0.2 mL of virus-containing solution was added to each of three wells to yield 20-30 plaques in each well. The virus was allowed to adsorb to the cells for 1 h and the plates were agitated every 15 minutes. Compounds were diluted in assay media consisting of MEM with Earl's salts supplemented with 2% FBS, glutamine, penicillin, and gentamycin. Diluted drug was added to duplicate wells and the plates were incubated for various times, depending on the virus used. For HSV-1 and -2, the monolayers were then stained with 1% crystal violet in 20% methanol and the unbound dye removed by washing with dH20. For all other assays, the cell monolayer was stained with 1% Neutral Red solution for 4-6 h then the stain was aspirated and the cells were washed with PBS.

[21] = Cytotoxicity concurrent with VZV Ellen primary assay; assay type: cell-based, human; conditions: human
Method: as §3

[22] = system: HCMV strain AD169; experiment: HCMV primary assay (CPE), strain AD169, HFF cells; assay type: cell-based, Human Cytomegalovirus
Method: The antiviral activity of the compound against HCMV in the described Primary assay was measured by treating primary Human foreskin fibroblast (HFF) cells infected with HCMV with a range of compound concentrations—description of methods for this assay can be found in section 1.3.2.1. […] . Additional tested assay parameters in this Primary assay can be found in Table 3.2.1 and include EC90, S150, and S190 values—descriptions of those data points can be found in section 3.2.1.

[23] = system: Human herpes virus 8 strain BCBL-1; experiment: Human herpes virus 8 primary assay, BCBL-1 cells; assay type: cell-based, Human Herpesvirus 8; conditions: Human gammaherpesvirus 8, BCBL1, strain BCBL-1, BCBL-1 cells
[24] = system: Akata cells
[25] = system: HFF cells; experiment: Cytotoxicity concurrent with Adenovirus primary assay; assay type: cell-based, human; conditions: Adenovirus primary assay, HFF cells
[26] = system: HFF cells; experiment: Cytotoxicity concurrent with HSV1 E-377 primary assay; assay type: cell-based, human
Method: as §3

[27] = system: HFF cells; experiment: Cytotoxicity concurrent with HSV2 primary assay; assay type: cell-based, human
Method: as §3

[28] = system: HFF cells; experiment: Cytotoxicity concurrent with HCMV AD169 primary assay; assay type: cell-based, human
[29] = system: HSV2 strain G; experiment: HSV2 primary assay, strain G, HFF cells; assay type: cell-based, herpes simplex virus 2
Method: as §3, §4

[30] = system: VZV strain Ellen; experiment: VZV primary assay, strain Ellen, HFF cells; assay type: cell-based, Varicella Zoster Virus; conditions: cell line HFF
Method: as §3, §4

[31] = system: HFF cells; experiment: Cytotoxicity concurrent with VZV Ellen primary assay; assay type: cell-based, human
Method: as §3

[32] = system: Murine CMV strain Smith; experiment: Murine CMV primary assay, strain Smith, MEF cells; assay type: cell-based, Mouse Cytomegalovirus
[33] = BCBL-1 cells without virus induction
[34] = Akata cells without virus induction
[35] = Molt-3 cells without virus addition
[36] = Human betaherpesvirus 5, virus strain AD169, HFF cells

SMILES	EC50 ([2]; human gammaherpesvirus 4) [µM]	EC90 ([2]; human gammaherpesvirus 4) [µM]	CC50 [3] [µM]	IC50 [4] [µM]	CC50 [5, 33] [µM]	CC50 at 72 h [6, 34] [µM]	CC50 at 7 d [7, 35] [µM]	CC50 ([8]; uninfected HFF cell monolayers) [µM]	CC50 [9] [µM]	CC50 at 7 d [10] [µM]	EC50 [11] [µM]	EC90 [11] [µM]	EC90 [12] [µM]	IC50 [13]	CC50 ([14]; C-33 A cell monolayers) [µM]	EC50 [22, 36] [µM]	EC90 [22, 36] [µM]	EC50 [23] [µM]	EC90 [23] [µM]	further results
Nc1nc2c(ncn2CCOCP(=O)(O)O)c(=O)[nH]1 [9-[2-phosohono-methoxy)ethyl]guanine, reference compound]	–	–	–	–	–	–	–	–	–	–	–	–	–	–	–	–	–	–	–	CC50 [1]: 39.4 µM
CN(C)C1CCC(Nc2cc3c4ccc(F)cc4nn3cn2)CC1 (stereo not drawn) [VKT-007]	1.3	5.5	34.2	> 10	31.4	20.3	27.9	23.7	23.1	18.5	5.32	9.88	9.91	0.11 µM and 0.152 µM	49.9	–	–	–	–	–
Fc1ccc2c(c1)nn1cnc(NC3CCCOC3)cc21 (stereo not drawn) [VKT-019]	–	–	–	–	–	42.3	–	–	32	–	–	–	–	–	–	–	–	–	–	CC50 [15]: 29.9 µM; CC50 [16]: 41.9 µM; CC50 [17]: 48.5 µM; CC50 [18]: 38.1 µM; EC50 ([19]; unidentified adenovirus): 6.02 µM; EC50 ([20]; Human alphaherpesvirus 1): 0.02 µM; CC50 [21]: 28.4 µM
NC(=O)CN1CCC(Nc2cc3c4ccc(F)cc4nn3cn2)CC1 [VKT-026]	10	10	50	–	–	–	–	–	26.8	50	10	10	9.87	–	–	1.48	10	10	10	CC50 ([5]; BCBL-1 cells): 42.4 µM; CC50 at 72 h ([6]; Akata cells): 42.9 µM; CC50 at 7 d ([7]; MOLT-3 cells): 48.6 µM; CC50 [8]: 27.2 µM; CC50 [14]: 50 µM
CC(C)(C)OC(=O)N[C@@H]1CC[C@H](Nc2cc3c4ccc(F)cc4nn3cn2)C1 [VKT-033]	–	–	–	–	–	–	–	–	–	–	–	–	–	–	–	–	–	–	–	CC50 [24]: 38 µM; EC50 [2]: 9.25 µM; EC90 [2]: 10 µM; CC50 [25]: 28.2 µM; CC50 [26]: 20.5 µM; CC50 [27]: 21.8 µM; CC50 [28]: 7.94 µM; EC50 ([22]; virus strain AD169, HFF cells): 2 µM; EC90 ([22]; virus strain AD169, HFF cells): 2 µM; EC50 [19]: 10 µM; EC90 [19]: 10 µM; EC50 [29]: 10 µM; EC90 [29]: 10 µM; EC50 [30]: 10 µM; EC90 [30]: 10 µM; EC50 [20]: 10 µM; EC90 [20]: 10 µM; CC50 [31]: 15.4 µM
N[C@@H]1CC[C@H](Nc2cc3c4ccc(F)cc4nn3cn2)C1 [VKT-034]	1.06	2.91	50	2.54	31.6	30.9	32.8	27.2	19.5	25	8.71	10	9.67	0.0807 µM	29.2	10	10	10	10	EC50 [32]: 10 µM; EC90 [32]: 10 µM
N[C@H]1CC[C@H](Nc2cc3c4ccc(F)cc4nn3cn2)C1 [VKT-036]	1.35	7.57	50	3.64	12.9	12.6	28.1	34.1	16.5	23.4	5.86	8.02	9.94	0.0681 µM	21.2	10	10	5.69	8.86	EC50 [32]: 10 µM; EC90 [32]: 10 µM
